Laboratory results from the supplement of paper PMC8728848.
The other results are listed elsewhere or left out.

What was measured:
Assay in all cases: glycan array binding signal (z-score within array); higher = stronger binding
Conditions in all cases: glycan notation: IUPAC condensed, linker removed
[1] = molecular target: Gal(b1-4)GalNAc(b1-3)[Fuc(a1-2)]Gal(b1-4)GlcNAc
How it was run: (§1)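 The binding signal is a Z-score computed within each array. Data were drawn from 3228 arrays in the Consortium for Functional Glycomics database, restricted to those with a known protein sequence. Scores were averaged over arrays of the same protein sequence at different concentrations or buffers, and over linkers, and negative values can be taken as non-binding.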

Gal(b1-4)Glc = molecular target: Gal(b1-4)Glc
How it was run: as §1

Gal(b1-4)Glc6S = molecular target: Gal(b1-4)Glc6S
How it was run: as §1

Gal(b1-4)GlcNAc = molecular target: Gal(b1-4)GlcNAc
How it was run: as §1

[2] = molecular target: Gal(b1-4)GlcNAc(a1-6)Gal(b1-4)GlcNAc
How it was run: as §1

Gal(b1-4)GlcNAc(b1-2)Man = molecular target: Gal(b1-4)GlcNAc(b1-2)Man
How it was run: as §1

[3] = molecular target: Gal(b1-4)GlcNAc(b1-2)Man(a1-3)Man(b1-4)GlcNAc(b1-4)GlcNAc
How it was run: as §1

[4] = molecular target: Gal(b1-4)GlcNAc(b1-2)Man(a1-3)[Gal(b1-4)GlcNAc(b1-2)Man(a1-6)]Man(b1-4)GlcNAc(b1-4)GlcNAc
How it was run: as §1

[5] = molecular target: Gal(b1-4)GlcNAc(b1-2)Man(a1-3)[Gal(b1-4)GlcNAc(b1-2)Man(a1-6)]Man(b1-4)GlcNAc(b1-4)[Fuc(a1-6)]GlcNAc
How it was run: as §1

[6] = molecular target: Gal(b1-4)GlcNAc(b1-2)Man(a1-3)[Gal(b1-4)GlcNAc(b1-2)Man(a1-6)][Gal(b1-4)GlcNAc(b1-4)]Man(b1-4)GlcNAc(b1-4)[Fuc(a1-6)]GlcNAc
How it was run: as §1

[7] = molecular target: Gal(b1-4)GlcNAc(b1-2)Man(a1-3)[Gal(b1-4)GlcNAc(b1-2)Man(a1-6)][GlcNAc(b1-4)]Man(b1-4)GlcNAc(b1-4)[Fuc(a1-6)]GlcNAc
How it was run: as §1

[8] = molecular target: Gal(b1-4)GlcNAc(b1-2)Man(a1-3)[GlcNAc(b1-2)Man(a1-6)]Man(b1-4)GlcNAc(b1-4)GlcNAc
How it was run: as §1

[9] = molecular target: Gal(b1-4)GlcNAc(b1-2)Man(a1-3)[GlcNAc(b1-4)][Gal(b1-4)GlcNAc(b1-2)Man(a1-6)]Man(b1-4)GlcNAc(b1-4)GlcNAc
How it was run: as §1

[10] = molecular target: Gal(b1-4)GlcNAc(b1-2)Man(a1-3)[Man(a1-6)]Man(b1-4)GlcNAc(b1-4)GlcNAc
How it was run: as §1

[11] = molecular target: Gal(b1-4)GlcNAc(b1-2)Man(a1-6)Man(b1-4)GlcNAc(b1-4)GlcNAc
How it was run: as §1

[12] = molecular target: Gal(b1-4)GlcNAc(b1-2)Man(a1-6)[GlcNAc(b1-2)Man(a1-3)]Man(b1-4)GlcNAc(b1-4)GlcNAc
How it was run: as §1

[13] = molecular target: Gal(b1-4)GlcNAc(b1-2)Man(a1-6)[Man(a1-3)]Man(b1-4)GlcNAc(b1-4)GlcNAc
How it was run: as §1

[14] = molecular target: Gal(b1-4)GlcNAc(b1-2)[Gal(b1-4)GlcNAc(b1-4)]Man(a1-3)[Gal(b1-4)GlcNAc(b1-2)Man(a1-6)]Man(b1-4)GlcNAc(b1-4)GlcNAc
How it was run: as §1

[15] = molecular target: Gal(b1-4)GlcNAc(b1-2)[Gal(b1-4)GlcNAc(b1-4)]Man(a1-3)[Gal(b1-4)GlcNAc(b1-2)[Gal(b1-4)GlcNAc(b1-6)]Man(a1-6)]Man(b1-4)GlcNAc(b1-4)GlcNAc
How it was run: as §1

[16] = molecular target: Gal(b1-4)GlcNAc(b1-2)[Gal(b1-4)GlcNAc(b1-4)]Man(a1-3)[GlcNAc(b1-4)][Gal(b1-4)GlcNAc(b1-2)Man(a1-6)]Man(b1-4)GlcNAc(b1-4)GlcNAc
How it was run: as §1

[17] = molecular target: Gal(b1-4)GlcNAc(b1-2)[Gal(b1-4)GlcNAc(b1-4)]Man(a1-3)[GlcNAc(b1-4)][Gal(b1-4)GlcNAc(b1-2)[Gal(b1-4)GlcNAc(b1-6)]Man(a1-6)]Man(b1-4)GlcNAc(b1-4)GlcNAc
How it was run: as §1

[18] = molecular target: Gal(b1-4)GlcNAc(b1-2)[Gal(b1-4)GlcNAc(b1-6)]Man(a1-6)[Gal(b1-4)GlcNAc(b1-2)Man(a1-3)]Man(b1-4)GlcNAc(b1-4)GlcNAc
How it was run: as §1

[19] = molecular target: Gal(b1-4)GlcNAc(b1-2)[Gal(b1-4)GlcNAc(b1-6)]Man(a1-6)[Gal(b1-4)GlcNAc(b1-2)Man(a1-3)]Man(b1-4)GlcNAc(b1-4)[Fuc(a1-6)]GlcNAc
How it was run: as §1

[20] = molecular target: Gal(b1-4)GlcNAc(b1-2)[Gal(b1-4)GlcNAc(b1-6)]Man(a1-6)[GlcNAc(b1-4)][Gal(b1-4)GlcNAc(b1-2)Man(a1-3)]Man(b1-4)GlcNAc(b1-4)GlcNAc
How it was run: as §1

[21] = molecular target: Gal(b1-4)GlcNAc(b1-2)[Gal(b1-4)GlcNAc(b1-6)]Man(a1-6)[GlcNAc(b1-4)][Gal(b1-4)GlcNAc(b1-2)[Gal(b1-4)GlcNAc(b1-4)]Man(a1-3)]Man(b1-4)GlcNAc(b1-4)[Fuc(a1-6)]GlcNAc
How it was run: as §1

[22] = molecular target: Gal(b1-4)GlcNAc(b1-3)Gal(b1-3)GalNAc
How it was run: as §1

[23] = molecular target: Gal(b1-4)GlcNAc(b1-3)Gal(b1-3)GlcNAc
How it was run: as §1

[24] = molecular target: Gal(b1-4)GlcNAc(b1-3)Gal(b1-4)Glc
How it was run: as §1

[25] = molecular target: Gal(b1-4)GlcNAc(b1-3)Gal(b1-4)GlcNAc
How it was run: as §1

[26] = molecular target: Gal(b1-4)GlcNAc(b1-3)Gal(b1-4)GlcNAc(b1-2)Man(a1-3)[Gal(b1-4)GlcNAc(b1-3)Gal(b1-4)GlcNAc(b1-2)Man(a1-6)]Man(b1-4)GlcNAc(b1-4)GlcNAc
How it was run: as §1

[27] = molecular target: Gal(b1-4)GlcNAc(b1-3)Gal(b1-4)GlcNAc(b1-2)Man(a1-3)[Gal(b1-4)GlcNAc(b1-3)Gal(b1-4)GlcNAc(b1-2)Man(a1-6)]Man(b1-4)GlcNAc(b1-4)[Fuc(a1-6)]GlcNAc
How it was run: as §1

[28] = molecular target: Gal(b1-4)GlcNAc(b1-3)Gal(b1-4)GlcNAc(b1-2)[Gal(b1-4)GlcNAc(b1-3)Gal(b1-4)GlcNAc(b1-6)]Man(a1-6)[Gal(b1-4)GlcNAc(b1-3)Gal(b1-4)GlcNAc(b1-2)Man(a1-3)]Man(b1-4)GlcNAc(b1-4)GlcNAc
How it was run: as §1

[29] = molecular target: Gal(b1-4)GlcNAc(b1-3)Gal(b1-4)GlcNAc(b1-2)[Gal(b1-4)GlcNAc(b1-3)Gal(b1-4)GlcNAc(b1-6)]Man(a1-6)[Gal(b1-4)GlcNAc(b1-3)Gal(b1-4)GlcNAc(b1-2)Man(a1-3)]Man(b1-4)GlcNAc(b1-4)[Fuc(a1-6)]GlcNAc
How it was run: as §1

[30] = molecular target: Gal(b1-4)GlcNAc(b1-3)Gal(b1-4)GlcNAc(b1-3)Gal(b1-4)GlcNAc
How it was run: as §1

[31] = molecular target: Gal(b1-4)GlcNAc(b1-3)Gal(b1-4)GlcNAc(b1-3)Gal(b1-4)GlcNAc(b1-2)Man(a1-3)[Gal(b1-4)GlcNAc(b1-3)Gal(b1-4)GlcNAc(b1-3)Gal(b1-4)GlcNAc(b1-2)Man(a1-6)]Man(b1-4)GlcNAc(b1-4)GlcNAc
How it was run: as §1

[32] = molecular target: Gal(b1-4)GlcNAc(b1-3)Gal(b1-4)GlcNAc(b1-3)Gal(b1-4)GlcNAc(b1-2)Man(a1-3)[Gal(b1-4)GlcNAc(b1-3)Gal(b1-4)GlcNAc(b1-3)Gal(b1-4)GlcNAc(b1-2)Man(a1-6)]Man(b1-4)GlcNAc(b1-4)[Fuc(a1-6)]GlcNAc
How it was run: as §1

[33] = molecular target: Gal(b1-4)GlcNAc(b1-3)Gal(b1-4)GlcNAc(b1-3)Gal(b1-4)GlcNAc(b1-2)[Gal(b1-4)GlcNAc(b1-3)Gal(b1-4)GlcNAc(b1-3)Gal(b1-4)GlcNAc(b1-6)]Man(a1-6)[Gal(b1-4)GlcNAc(b1-3)Gal(b1-4)GlcNAc(b1-3)Gal(b1-4)GlcNAc(b1-2)Man(a1-3)]Man(b1-4)GlcNAc(b1-4)[Fuc(a1-6)]GlcNAc
How it was run: as §1

B1: AT1G15820(2) (Arabidopsis thaliana), Q9LMQ2 (protein)
chain: MAMAVSGAVLSGLGSSFLTGGKRGATALASGVGTGAQRVGRKTLIVAAAAAQPKKSWIPAVKGGGNFLDPEWLDGSLPGDFGFDPLGLGKDPAFLKWYREAELIHGRWAMAAVLGIFVGQAWSGVAWFEAGAQPDAIAPFSFGSLLGTQLLLMGWVESKRWVDFFNPDSQSVEWATPWSKTAENFANYTGDQGYPGGRFFDPLGLAGKNRDGVYEPDFEKLERLKLAEIKHSRLAMVAMLIFYFEAGQGKTPLGALGL
B1 was tested, and the “glycan array binding signal (z-score)” value [1] was -0.276, the “glycan array binding signal (z-score)” value (Gal(b1-4)Glc) was 0.004 and the “glycan array binding signal (z-score)” value (Gal(b1-4)Glc6S) was 0.098. The “glycan array binding signal (z-score)” value (Gal(b1-4)GlcNAc) was -0.146, the “glycan array binding signal (z-score)” value [2] was -0.192 and the “glycan array binding signal (z-score)” value (Gal(b1-4)GlcNAc(b1-2)Man) was 0.209. The “glycan array binding signal (z-score)” value [3] was -0.043, the “glycan array binding signal (z-score)” value [4] was 0.213 and the “glycan array binding signal (z-score)” value [5] was -0.4. The “glycan array binding signal (z-score)” value [6] was -0.43, the “glycan array binding signal (z-score)” value [7] was -0.422 and the “glycan array binding signal (z-score)” value [8] was -0.663. For the same binder, the “glycan array binding signal (z-score)” value [9] was -0.318, the “glycan array binding signal (z-score)” value [10] was 0.091 and the “glycan array binding signal (z-score)” value [11] was 0.118. For the same binder, the “glycan array binding signal (z-score)” value [12] was 0.324, the “glycan array binding signal (z-score)” value [13] was -0.33 and the “glycan array binding signal (z-score)” value [14] was -0.39. The “glycan array binding signal (z-score)” value [15] was -0.037, the “glycan array binding signal (z-score)” value [16] was -0.16 and the “glycan array binding signal (z-score)” value [17] was 0.16. The “glycan array binding signal (z-score)” value [18] was -0.544, the “glycan array binding signal (z-score)” value [19] was -0.418 and the “glycan array binding signal (z-score)” value [20] was 0.1. The “glycan array binding signal (z-score)” value [21] was -0.453, the “glycan array binding signal (z-score)” value [22] was -0.659 and the “glycan array binding signal (z-score)” value [23] was -0.454. For the same binder, the “glycan array binding signal (z-score)” value [24] was -0.362, the “glycan array binding signal (z-score)” value [25] was -0.4 and the “glycan array binding signal (z-score)” value [26] was 0.779. The “glycan array binding signal (z-score)” value [27] was -0.156, the “glycan array binding signal (z-score)” value [28] was 0.773 and the “glycan array binding signal (z-score)” value [29] was 0.385. For the same binder, the “glycan array binding signal (z-score)” value [30] was -0.434, the “glycan array binding signal (z-score)” value [31] was 0.146 and the “glycan array binding signal (z-score)” value [32] was -0.247. The “glycan array binding signal (z-score)” value [33] was -0.163.
